Where “and” joins values, the source holds several entries; their conditions need not be identical. Equal entries are not always repeated. The list shows a part of the results. These are further read-outs of the screen, such as a control signal, another cell line or another target. No call is given for them. For part of these data: Most of these compounds were active or inconclusive in the main read-out, so they are no random draw. Words in brackets tell the shape of the fitted curve; partial curves, single points and poor fits give uncertain potencies.
Key:
[1] = qHTS Assay for Lipid Storage Modulators (AID 1519); conditions: Drosophila S3 cells, BODIPY lipid droplet/cell ratio, laser cytometry, cells loaded with oleic acid
Procedure, shortened: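 Cells seeded at 5,000 per well were treated with compounds over a concentration series and loaded with oleic acid (400 uM, as added). Lipid droplet fluorescence (488 nm excitation, 500-530 nm channel) was read by laser-scanning cytometry and normalized to 20 uM Triacsin C.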

[2] = qHTS Validation Assay to Find Inhibitors of Chronic Active B-Cell Receptor Signaling (AID 485345); conditions: ABC-DLBCL cells, chronic BCR signaling reporter; measured here: CBR control luciferase (viability counter)
Procedure, shortened: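 TMD8 ABC-DLBCL cells stably carrying doxycycline-inducible IkappaBalpha–green luciferase fusion plus unfused red luciferase; compounds 46 uM to 3 nM, 4 h at 37C with doxycycline. Corrected green/red luminescence ratio normalized to 10 uM MG-132 and basal cell wells; curves fitted.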

[3] = Nrf2 qHTS screen for inhibitors: Validation (AID 493153); conditions: A549 ARE-Fluc reporter, 18-24 h; AC50: CellTiter-Fluor fluorescence read, measured here: cytotoxicity CellTiter-Fluor AC50; viability change: measured here: cytotoxicity max response
Procedure, shortened: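 Luminescence from an ARE-firefly luciferase reporter in A549 cells gives Nrf2 inhibition; an earlier CellTiter-Fluor fluorescent read flags cytotoxicity. Cells in 5% FBS OPTI-MEM received compound dilution series for 18-24 h at 37°C.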

[4] = A High-Content qHTS Against Drug Library for the Identification of Small Molecules that Inhibit DYT1 Early Onset Primary Dystonia-Associated Cell Pathology (AID 1645839); conditions: HEK293 Flp-In EGFP-delE TorsinA, punctate imaging, 48 h; measured here: cell count cytotoxicity
Procedure, shortened: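 Flp-In T-REx 293 cells with tetracycline-inducible EGFP-delE hTOR1A (WT EGFP-hTOR1A as reference), 800 cells/well; compound added with tetracycline, 48 h at 37 C. Fixed, permeabilized cells imaged; %pathology (punctate TorsinA) primary, cell count counterscreen.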

[5] = qHTS for identification of novel therapeutic agents for treatment of microphthalmiaassociated transcription factor (MiT) renal cell carcinoma (RCC) (AID 1963991); conditions: CellTiter-Glo, 48 h; for z-score: stronger effect = lower value
Procedure, shortened: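 Viability of three TFE3-fusion renal carcinoma lines measured by CellTiter-Glo after 48 h treatment with each of 1912 compounds at 11 concentrations. Responses scaled between DMSO (100%) and empty wells (0%) before curve fitting.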

[6] = qHTS Assay for Modulators of Human Peripheral Myelin Protein 22 (PMP22) Expression/Activity (AID 1967); conditions: Cell-based PMP22 reporter, dual-color luciferase ratio
Procedure, shortened: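 Engineered MSC80 cells, Pmp22-promoter green and EF-alpha red luciferase reporters; 24h compound treatment at 37 °C. Concentration-response fits on green, red and ratio signals, each overlap-corrected, with %Activity normalized to untreated wells.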

[7] = qHTS drug screen for cell cycle checkpoint inhibitors in PARPi-resistant BRCA-mutant ovarian cancer cell lines. (AID 1963452); conditions: PEO1/OlaR viability, CellTiter-Glo luminescence, 96 h
Procedure, shortened: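 PEO1, PEO4 and PEO1/OlaR ovarian cancer cells, 600 per well, exposed 96 h at 37C to a dilution series. Viability read by CellTiter-Glo luminescence, normalized to DMSO and empty wells; activity summarized as Z-AUC.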

[8] = S16 Schwann cell PMP22 intronic element beta-lactamase assay (AID 624044); conditions: S16 rat Schwann cells, PMP22 element beta-lactamase FRET, 24 h; note: nearly all actives have a fitted effect of over 15% in size
Procedure, shortened: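 Rat S16 Schwann cells with beta-Lac driven by a PMP22 intronic element, compound-treated 24 h at 37 °C. LiveBLAzer FRET B/G read: 460 nm normalized to potassium clavulanate vs DMSO; 535 nm FRET as viability; concentration-effect curves classified.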

[9] = measured here: cell count channel max response
[10] = measured here: cell number channel AC50
[11] = measured here: lipid (BODIPY) channel AC50
[12] = measured here: lipid channel max response
[13] = TFE3-RCC UOK109 viability, measured here: UOK109 Z-AUC
[14] = TFE3-RCC viability, measured here: UOK124 Z-AUC
[15] = TFE3-RCC viability, measured here: UOK145 Z-AUC
[16] = TFE3-RCC viability, measured here: UOK145 cell viability
[17] = measured here: green reporter channel AC50, mouse Pmp22 promoter in mouse Schwann cells
[18] = measured here: red reporter channel AC50, EF-alpha promoter control reporter in MSC80 mouse Schwann cells
[19] = TFE3-RCC viability, measured here: UOK124 cell viability
[20] = measured here: PEO1 parental viability
[21] = measured here: 530 nm viability channel
Tags give direction and shape of the fitted curve.

**Q.** Which max response [1, 9] does the source give for `CN1C(C(=O)Nc2ccccn2)=C(O)c2ccccc2S1(=O)=O` here?
**A.** Its max response is 32.9% and 22.7% and -17.4%.

**Q.** And the AC50 [1, 10]?
**A.** The AC50 was 8.91 µM [rising, full curve, poor fit] and 5.01 µM [falling, full curve, poor fit].

**Q.** What about the AC50 [1, 11] of the same molecule?
**A.** Its AC50 is 10 µM [rising, full curve, poor fit] and 11.2 µM [rising, partial curve, poor fit] and 5.01 µM [falling, full curve, poor fit].

**Q.** What about the max response [1, 12] of the same molecule?
**A.** Its max response is 47.7% and 32.5% and -17.9%.

**Q.** And the AC50 [2]?
**A.** The AC50 was 6.51 µM [rising, single point].

**Q.** And the viability change [3]?
**A.** Its viability change is -2.87%.

**Q.** And the AC50 [4]?
**A.** Its AC50 is 3.55 µM [rising, full curve, poor fit].

**Q.** And the z-score [5, 13]?
**A.** The z-score was -0.501.

**Q.** And the z-score [5, 14]?
**A.** Its z-score is 0.524.

**Q.** What about the z-score [5, 15] of the same molecule?
**A.** Its z-score is -0.0479.

**Q.** What about the AC50 [5, 16] of the same molecule?
**A.** The AC50 was 37.2 µM [falling, partial curve, poor fit].

**Q.** With `O=C(CCCN1CCC(O)(c2ccc(Cl)cc2)CC1)c1ccc(F)cc1` as the molecule, how does the max response [1, 9] read?
**A.** Its max response is 74.9% and -85.6%.

**Q.** And the AC50 [1, 10]?
**A.** The AC50 was 28.2 µM [rising, partial curve, poor fit] and 39.8 µM [falling, partial curve, poor fit].

**Q.** And the AC50 [1, 11]?
**A.** The AC50 was 31.6 µM [rising, partial curve, poor fit] and 39.8 µM [falling, partial curve, poor fit].

**Q.** And the max response [1, 12]?
**A.** The max response was 93.4% and -86.5%.

**Q.** And the AC50 [6, 17]?
**A.** Its AC50 is 53.6 µM [falling, partial curve].

**Q.** What about the AC50 [6, 18] of the same molecule?
**A.** The AC50 was 60.1 µM [falling, partial curve, poor fit].

**Q.** And the AC50 [4]?
**A.** The AC50 was 15.8 µM [falling, single point].

**Q.** What about the z-score [5, 13] of the same molecule?
**A.** Its z-score is 0.156.

**Q.** What about the z-score [5, 14] of the same molecule?
**A.** Its z-score is 0.216.

**Q.** And the AC50 [5, 19]?
**A.** The AC50 was 20.9 µM [falling, partial curve].

**Q.** And the z-score [5, 15]?
**A.** Its z-score is 0.535.

**Q.** With `COc1ccc2c(c1OC)C(=O)O[C@@H]2[C@H]1c2c(cc3c(c2OC)OCO3)CCN1C` as the molecule, how does the max response [1, 9] read?
**A.** Its max response is 99.9% and 100%.

**Q.** And the AC50 [1, 10]?
**A.** The AC50 was 4.47 µM [rising, partial curve] and 8.91 µM [rising, partial curve].

**Q.** What about the AC50 [1, 11] of the same molecule?
**A.** The AC50 was 4.47 µM [rising, partial curve] and 11.2 µM [rising, partial curve].

**Q.** What about the max response [1, 12] of the same molecule?
**A.** The max response was 129% and 134%.

**Q.** What about the AC50 [3] of the same molecule?
**A.** Its AC50 is 16.4 µM [falling, partial curve].

**Q.** And the viability change [3]?
**A.** Its viability change is -34.3%.

**Q.** What about the AC50 [7, 20] of the same molecule?
**A.** Its AC50 is 15.5 µM [falling, single point].

**Q.** What about the AC50 ([7]; measured here: PEO4 viability) of the same molecule?
**A.** Its AC50 is 21.9 µM [falling, single point].

**Q.** Which results are given for `OCCN1CCN(CCCN2c3ccccc3C=Cc3ccccc32)CC1`?
**A.** max response [1, 9]: 34.9%; AC50 [1, 10]: 39.8 µM [rising, single point]; AC50 [1, 11]: 39.8 µM [rising, single point]; max response [1, 12]: 41.7%; AC50 [6, 17]: 47.8 µM [falling, partial curve] and 75.7 µM [falling, partial curve]; AC50 [6, 18]: 67.5 µM [falling, partial curve] and 84.9 µM [falling, single point]; AC50 [4]: 31.6 µM [falling, single point]

**Q.** Which max response [1, 9] does the source give for `COC(=O)C1C2CC3c4[nH]c5cc(OC)ccc5c4CCN3CC2CC(OC(=O)c2cc(OC)c(OC)c(OC)c2)C1OC` (stereo unspecified) here?
**A.** Its max response is 116%.

**Q.** What about the AC50 [1, 10] of the same molecule?
**A.** The AC50 was 12.6 µM [rising, full curve].

**Q.** What about the AC50 [1, 11] of the same molecule?
**A.** Its AC50 is 14.1 µM [rising, partial curve].

**Q.** What about the max response [1, 12] of the same molecule?
**A.** The max response was 143%.

**Q.** What about the AC50 ([7]; measured here: PEO4 viability) of the same molecule?
**A.** Its AC50 is 15.5 µM [falling, partial curve, poor fit].

**Q.** And the z-score [5, 13]?
**A.** The z-score was 0.644.

**Q.** And the z-score [5, 14]?
**A.** The z-score was 0.384.

**Q.** What about the AC50 [5, 19] of the same molecule?
**A.** The AC50 was 29.6 µM [falling, single point].

**Q.** What about the z-score [5, 15] of the same molecule?
**A.** The z-score was 0.501.

**Q.** What about the AC50 [5, 16] of the same molecule?
**A.** The AC50 was 29.6 µM [falling, single point].

**Q.** Which max response [1, 9] does the source give for `NC(=O)c1ccc(-c2nc(-c3ccc4c(c3)OCO4)c(-c3ccccn3)[nH]2)cc1` here?
**A.** The max response was 95.4%.

**Q.** What about the AC50 [1, 10] of the same molecule?
**A.** The AC50 was 0.112 µM [rising, full curve].

**Q.** What about the AC50 [1, 11] of the same molecule?
**A.** The AC50 was 0.0708 µM [rising, full curve].

**Q.** What about the max response [1, 12] of the same molecule?
**A.** The max response was 125%.

**Q.** And the AC50 ([7]; measured here: PEO4 viability)?
**A.** The AC50 was 4.36 µM [falling, full curve].

**Q.** Which results are given for `COc1c(C)c2c(c(O)c1C/C=C(\C)CCC(=O)O)C(=O)OC2`?
**A.** max response [1, 9]: 45.1% and 22.3% and 44.3%; AC50 [1, 10]: 35.5 µM [rising, single point] and 6.31 µM [rising, full curve, poor fit]; AC50 [1, 11]: 31.6 µM [rising, single point] and 20 µM [rising, partial curve, poor fit]; max response [1, 12]: 54.5% and 34.3% and 58.8%; AC50 ([8]; measured here: 460 nm blue channel): 0.951 µM [falling, full curve, poor fit]; AC50 [8, 21]: 5.01 µM [rising, single point]; AC50 [7, 20]: 1.74 µM [falling, full curve]; AC50 ([7]; measured here: PEO4 viability): 1.74 µM [falling, full curve]

**Q.** Which results are given for `O=C1C(=O)c2ccccc2C(O)=C1C1CCC(c2ccc(Cl)cc2)CC1` (stereo unspecified)?
**A.** max response [1, 9]: -36.2%; AC50 [1, 10]: 6.31 µM [falling, full curve, poor fit]; AC50 [1, 11]: 7.94 µM [falling, full curve]; max response [1, 12]: -107%; AC50 [8, 21]: 6.31 µM [falling, partial curve]; AC50 [4]: 35.5 µM [rising, single point]

From PubChem BioAssay (NCATS)
